Results reported in the supplement of paper PMC12217912.
The list shows a part of the results. The full chains were built here from the parent and the listed change. Values near 0.05 are background.

B1: TEV protease; numbered along this chain (parent)
chain: MGESLFKGPRDYNPISSSICHLTNESDGHTTSLYGIGFGPFIITNKHLFRRNNGTLVVQSLHGVFKVKDTTTLQQHLVDGRDMIIIRMPKDFPPFPQKLKFREPQREERICLVTTNFQTKSMSSMVSDTSCTFPSGDGIFWKHWIQTKDGQCGSPLVSTRDGFIVGIHSASNFTNTNNYFTSVPKNFMELLTNQEAQQWVSGWRLNADSVLWGGHKVFMVKPEEPFQPVKEATQL

Variants of: B1
Test: raw area under fraction-flipped curve 0-4 h after induction (AUC4h, not background-subtracted), DNA-recorder readout of cleavage of the substrate (dimensionless); higher = more cleavage of the substrate by the protease variant
Conditions: temperature: 34 °C; time window: 0-4 h after rhamnose induction
Method: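 In vivo DNA recorder in E. coli TOP10(DE3) ΔrhaA at 34 °C. Each TEVp single-site mutant (parent TEVp 0) is paired with a single-site variant of the 7-mer TEVs (canonical ENLYFQ|S). The substrate sits between flexible linkers in a Bxb1-sfGFP-TEVs-SsrA fusion, so cleavage stabilises Bxb1 and speeds flipping of a recombination array, read by NGS. The value is the raw area under the fraction-flipped curve over 0-4 h after rhamnose induction (AUC4h), with ≥20 reads per time point. It is not background-subtracted; inactive controls average about 0.047.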
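Further: Bxb1 expression induced with 0.2% (w/v) L-rhamnose at OD600 near 0.5, cultures sampled hourly, flipped fraction per protease–substrate barcode pair counted by paired-end Illumina sequencing.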

Variant	area with substrate ENLYFCS	area with substrate ENLYFES	area with substrate ENLYFFS	area with substrate ENLYFGS	area with substrate ENLYFHS	area with substrate ENLYFIS	area with substrate ENLYFMS	area with substrate ENLYFNS	area with substrate ENLYFRS	area with substrate ENLYFSS	area with substrate ENLYFTS	area with substrate ENLYFVS	area with substrate ENLYFWS	area with substrate ENLYFYS	area with substrate ENLYFPS	area with substrate ENLYFDS	area with substrate ENLYFKS	area with substrate ENLYFLS
N52S	0.0558	0.0784	0.0537	0.0552	0.0571	0.0316	0.0638	0.056	0.0582	0.0627	0.0589	0.0033	0.0585	0.0598				
N52I	0.0493	0.0512			0.0533	0.0509	0.0679								0.0554			
G213Y	0.0648	0.0633		0.0706		0.0533	0.0567	0.0617	0.0605	0.0584	0.0645	0.0128	0.0572		0.043	0.0655		
G213A	0.0512	0.0532	0.063	0.0551	0.0487	0.0563	0.0603	0.0663	0.0563	0.0579	0.059	0.0606		0.0576	0.0485		0.0654	0.039
T147Y	0.0719	0.0614	0.0673	0.0702		0.0468	0.0532	0.0345		0.0661	0.0607	0.0638			0.0551			0.0596
T192D	0.0411			0.0828		0.0439	0.0565	0.0579	0.0605	0.0423	0.069		0.068			0.0697	0.0573	
E189D	0.0937	0.0706	0.0568	0.066	0.0667	0.067	0.0794	0.0679		0.0631		0.0338	0.0754	0.0504				
N177V	0.0697		0.0627	0.0587		0.049	0.0683	0.0699	0.0607	0.0599			0.0658	0.0722	0.0609	0.0519		
G28H		0.0665	0.0118	0.0578		0.0645		0.057	0.0649	0.0675		0.0471	0.0614	0.0505	0.0612	0.0446	0.0741	0.0544
T233D	0.0573	0.0635				0.0432	0.0646	0.0605	0.0624				0.0322			0.068	0.072	0.0632
P89E	0.0552	0.0624		0.0602	0.0567	0.0624	0.055	0.0597	0.0479	0.059	0.0521		0.0352	0.0497	0.0624	0.0522	0.0458	
P89W	0.0409		0.0421	0.0397		0.0497	0.076				0.0454	0.033	0.0603		0.0246		0.0458	
T181G	0.0429	0.0683	0.0649		0.0571	0.0496	0.0426	0.0775	0.058	0.0773			0.0565	0.0386	0.0573	0.0434		
L205N	0.0074	0.0539				0.0614	0.0748		0.0497		0.0554	0.056	0.0747	0.0639	0.0579		0.0592	
Q118H	0.0694	0.078	0.0581			0.0573	0.0564	0.0705	0.0338		0.0717		0.0528		0.0697		0.0592	
Q118N	0.0536	0.0526	0.069	0.0603		0.0638	0.0453		0.0662	0.067		0.0588	0.0516	0.0521		0.0442		0.0618
V229H	0.0666	0.0726	0.0663		0.0875	0.0677	0.0755		0.0523				0.0617	0.0398	0.0747	0.0722	0.0385	
G153Y	0.0482	0.0569	0.0356		0.0498	0.0536		0.0671			0.0443			0.0477	0.0522			
E195C	0.0576	0.0679	0.0673	0.0695		0.0562	0.0727	0.0671	0.0629		0.0714		0.0836		0.042	0.0619	0.0585	
G214V	0.0825	0.0505			0.0564	0.0562	0.0558	0.0516	0.0625	0.0436	0.049	0.0696	0.0521	0.0519	0.0763	0.0513		
K66R	0.0575	0.0716	0.0637	0.0597		0.0551	0.0823	0.0685	0.0583	0.0672	0.0664		0.0429		0.0554	0.0616	0.0471	0.0507
R81I	0.0544	0.0555	0.0711			0.0408	0.0464	0.062	0.0603		0.056			0.075	0.0666		0.0669	
P155F	0.0417	0.0638	0.0657		0.048	0.0474	0.0513		0.0376	0.0517	0.0611	0.0523	0.0482		0.0558	0.044	0.0709	0.0621
P155E	0.0469	0.0449		0.054	0.0611	0.0535		0.073	0.0524		0.0368		0.0488		0.0454		0.0665	
M219Q	0.06	0.0664	0.0614			0.0504	0.0604	0.0515	0.0562	0.0565	0.0686	0.049	0.0532	0.0498	0.0645	0.0864	0.0619	0.0546
N193P	0.0539	0.0609		0.0662		0.0658	0.0681	0.0655	0.065	0.055	0.0676		0.0742		0.0474	0.0575	0.0678	
K216L	0.054					0.0665	0.0767	0.0875	0.0848		0.0584	0.059			0.0616			0.0665
V67R	0.0559	0.041	0.0592		0.0611	0.0479	0.0384	0.0614	0.0295		0.0448		0.0495	0.0531	0.0518	0.0838		0.0545
K120L	0.0455				0.0426		0.0562		0.0599		0.066							
